According to PubChem BioAssay AID686978 (National Center for Advancing Translational Sciences (NCATS), 2013):
Several values for one entry are separate records, joined by “and”; a condition that tells them apart may be missing. Identical values can stand only once. About 64,000 (15%) of roughly 420,000 compounds were called active. The shares of active, inactive and inconclusive entries below differ from those in the screen. The call rests on the fitted dose curve; in most records, active means well fitted inhibition curve with a large enough effect; inconclusive means small, poorly fitted or top-dose-only effect; inactive means flat fitted curve, though single readings scatter. No potency is given beside an inconclusive call; the fits are too rough.

test: qHTS for Inhibitors of human tyrosyl-DNA phosphodiesterase 1 (TDP1): qHTS in cells in absence of CPT; conditions: DT40 Tdp1-/- hTDP1 cells, no CPT, ATP luminescence, 48 h; activity change, negative = growth inhibition: at 46.2 µM (top of the series); further: nearly all actives have a fitted effect of over 55% in size
In short: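 No-CPT arm: Tdp1-/-;hTDP1 DT40 cells (400/well) plus compounds, incubated ≥48 hr at 37 °C. Readout CellTiter-Glo luminescence.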
On the % scale 0 is the no-effect control and ±100 the full control effect; potency means the concentration at half of the fitted maximal effect; tags describe the fitted curve by direction and shape.

SMILES | Potency | activity change, negative = growth inhibition
CCC(CO)Oc1cc(NCc2ccccc2OC)c2ncn(C(C)C)c2c1 (centres undefined) | inconclusive [inhibitor, single point] | –
CCCc1ccc(C#N)c(SC2CC(=O)N(c3ccc(OC)cc3)C2=O)n1 (centres undefined) | – | inactive: 0.243%
C/C(=N\NC(=O)c1c(Br)c(C)nn1C)c1cccc(NC(=O)c2ccccc2C)c1 | inconclusive [inhibitor, single point] | –
CCOc1cc(CNCCc2ccc(S(N)(=O)=O)cc2)ccc1OCC(=O)NC1CCCCC1 | active: 23.1 µM | –
Cc1ccc(CNc2nc3c(c(=O)n(C)c(=O)n3C)n2Cc2ccc(Cl)cc2)cc1 | inconclusive [inhibitor, partial curve, poor fit] | –
Cc1ccc(CN(C(=O)c2ccc(F)cc2)c2ccccn2)o1 | inconclusive [inhibitor, partial curve] | –
Cc1[nH]c2ccccc2c1/C=N/NC(=O)CNC(=O)c1ccc2c(c1)OCCO2 | inconclusive [inhibitor, partial curve, poor fit] | –
CCOC(=O)C(Cc1ccccc1)NC(=O)CCCC(=O)c1ccccc1 (centres undefined) | – | inactive: -6.14%
CN(Cc1ccccc1)C(=O)c1ccc(Nc2nc(C(N)COCc3ccccc3)cs2)nc1 (centres undefined) | inconclusive [inhibitor, single point] | –
Cc1ccc(CN(C(=O)c2cc(=O)c3cc(C)cc(C)c3o2)C2CCS(=O)(=O)C2)cc1 (centres undefined) | active: 18.4 µM | –
CN1CC(O)C2=CC(=O)C(=O)C=C21 (centres undefined) | inconclusive [inhibitor, partial curve] | –
CC(O)(c1cccc(F)c1)c1nc(-c2ccoc2)cs1 (centres undefined) | inconclusive [inhibitor, single point] | –
O=C(c1ccco1)N1N=C(c2ccc3nccnc3c2)CC1c1ccccc1 (centres undefined) | active: 18.4 µM | –
COCC1CCN(C(=O)CCc2nnc(C3(c4ccc(Cl)cc4)CCC3)o2)C1 (centres undefined) | – | inactive: -15.1%
N#Cc1ccccc1NC(=O)c1ccccc1OCC(=O)Nc1ccc2c(c1)oc1ccccc12 | inconclusive [inhibitor, single point] | –
O=C(Nc1ccc2oc(-c3cccnc3)nc2c1)c1ccc(Br)cc1 | – | inactive: -19%
CCCn1c(SC(C)C(=O)NC2CC2)nnc1-c1ccncc1 (centres undefined) | – | inactive: 17.7%
COc1ccc(NC(=O)Cn2c(=O)n(Cc3nc(-c4ccccc4)no3)c(=O)c3cc4c(cc32)OCO4)c(OC)c1 | – | inactive: -5.32%
CN(C)S(=O)(=O)c1ccc(Cl)c(C(=O)NCC2CCCCC2)c1 | inconclusive [inhibitor, single point] | –
S=C(NC1CCCC1)N1CCN(c2ccc(Cl)cc2)CC1 | inconclusive [inhibitor, partial curve] | –
CN1CCN(c2c(F)cc3c(=O)c(C(=O)O)cn4c3c2SCC4)CC1 | active: 13.3 µM and active: 11.6 µM | –
COc1cccc(NC(=O)CSc2nc3c([nH]c4ccccc43)c(=O)n2C)c1 | inconclusive [inhibitor, single point] | –

SMILES | Potency | activity change, negative = growth inhibition
S=C(Nc1ccccc1)Nc1ccc(OCc2ccc(Cl)cc2Cl)cc1 | inconclusive [inhibitor, single point] | –
Cc1ccc(NC(=S)N2CCC(c3nc4ccccc4s3)CC2)cc1 | inconclusive [inhibitor, partial curve, poor fit] | –
Cc1cc(C(=O)Cn2nc(C(=O)O)c3ccccc3c2=O)c(C)n1CCc1ccc(F)cc1 | inconclusive [inhibitor, single point] | –
COC(=O)[C@@H](NC(=O)/C=C/c1ccc(OC)cc1)C(C)C | – | inactive: 12.4%
O=C(N/N=C/C(Cl)=C/c1ccc([N+](=O)[O-])cc1)C(=O)Nc1ccc(C(=O)O)cc1 | active: 20.6 µM | –
CN(CCCNC(=O)CCC(=O)N1CCOc2ccc(Cl)cc21)Cc1ccccc1 | inconclusive [inhibitor, single point] | –
COc1ccc(-c2csc(N(CCc3ccc(OC)c(OC)c3)C(=O)COc3ccccc3)n2)cc1 | active: 16.4 µM | –
CCOc1ccc(Cc2nc(-c3nonc3N)no2)cc1OCC | inconclusive [inhibitor, single point] | –
COc1cc(C(C)=O)ccc1OC(=O)C(C)N1C(=O)c2ccccc2C1=O (centres undefined) | – | inactive: -14.5%
Cn1c(CNC(=O)c2ccccc2F)nnc1SCc1ccc(F)cc1 | inconclusive [inhibitor, full curve, poor fit] | –
Cn1c(COc2cccc3cccnc23)nnc1SCC(=O)O | inconclusive [inhibitor, single point] | –
COc1cc(N=Nc2ccc(C(=O)N(C)C)cc2)c(C)cc1N | inconclusive [inhibitor, single point] | –
Cc1cc(C(C)(C)C)cc(S(=O)(=O)Nc2ccc(C(=O)O)cc2)c1C | – | inactive: -0.652%
CC(=O)c1ccc(NC(=O)C2Cc3ccccc3N2C(=O)c2ccccc2)cc1 (centres undefined) | – | inactive: -7.09%
O=C(Nc1ccc2c(c1)OCCO2)C(c1ccc(F)cc1)N1CCCCC1 (centres undefined) | inconclusive [inhibitor, single point] | –
COc1ccccc1P(=O)(Cc1ccccc1[N+](=O)[O-])c1ccccc1 (centres undefined) | active: 14.6 µM | –
CC1CCN(c2ccc(-c3cccc(NC(=O)C(F)(F)F)c3)nn2)CC1 | inconclusive [inhibitor, single point] | –
COc1cc(/C=N/Nc2nc3ccccc3s2)ccc1OC(=O)c1ccccc1F | active: 4.61 µM | –
C/C(=N/Nc1ccccc1[N+](=O)[O-])c1ccc([N+](=O)[O-])cc1 | inconclusive [inhibitor, partial curve] | –
Nc1nn(S(=O)(=O)c2ccccc2)cc1-c1cccc([N+](=O)[O-])c1 | inconclusive [inhibitor, single point] | –
COc1ccc2c(c1)CC(C)C/C2=N\NC(=O)c1ccco1 (centres undefined) | inconclusive [inhibitor, single point] | –
CCN1CCN(C(=O)C2CCN(S(=O)(=O)N3CCC4(CC3)OCCO4)CC2)CC1 | – | inactive: 18.9%
